The antibiotic and cytotoxicity screens of Wong et al. (2023)
Some of the results follow.

Legend:
HSkMC = human skeletal muscle cells; assay: cytotoxicity call (relative viability < 0.9); details: 10 µM
HepG2 = assay: cytotoxicity call (relative viability < 0.9); details: 10 µM
S. aureus RN4220 = assay: growth inhibition call (relative growth <= 0.2); details: 50 µM

Structure (SMILES) | cytotoxicity call (HSkMC) | cytotoxicity call (HepG2) | growth inhibition call (S. aureus RN4220)
C[C@@H]1CN([C@@H](C)CO)C(=O)Cc2cc(NC(=O)Cc3cn(C)c4ccccc34)ccc2O[C@H]1CN(C)S(=O)(=O)c1cn(C)cn1 | inactive | inactive | inactive
COc1ccc(NC(=O)Nc2ccc3c(c2)CC(=O)N([C@H](C)CO)C[C@@H](C)[C@H](CN(C)S(=O)(=O)c2cn(C)cn2)O3)cc1 | inactive | inactive | inactive
C[C@H](CO)N1C[C@H](C)[C@@H](CN(C)Cc2ccccc2C(F)(F)F)OCc2ccccc2-c2ccccc2C1=O | inactive | inactive | active
CC(C)NC(=O)N(C)C[C@@H]1Oc2ccc(NC(=O)Cc3ccccc3)cc2C(=O)N([C@H](C)CO)C[C@@H]1C | inactive | inactive | inactive
COc1cccc(NC(=O)N[C@H]2C=C[C@H](CC(=O)N3CCOCC3)O[C@@H]2CO)c1 | inactive | inactive | inactive
COc1cc2c(cc1O)CCN[C@]21CS[C@@H]2c3c(OC(C)=O)c(C)c4c(c3[C@H](COC1=O)N1[C@@H]2[C@H]2c3c(cc(C)c(OC)c3O)C[C@@H]([C@@H]1O)N2C)OCO4 | active | active | inactive
COC(=O)[C@@H](Cc1ccc(-n2cc(C(=O)NO)nn2)cc1)N1CC(/C=C/C2CC2)=C[C@H]1[C@H](O)Cc1ccccc1 | inactive | inactive | inactive
CN1CCN(C(=O)C[C@@H]2C=C[C@H](NC(=O)c3ccc4c(c3)OCO4)[C@H](CO)O2)CC1 | inactive | inactive | inactive
C[C@@H]1CCCCO[C@H](CN(C)S(=O)(=O)c2ccc(F)cc2)[C@@H](C)CN([C@@H](C)CO)C(=O)c2cc(NS(=O)(=O)c3cn(C)cn3)ccc2O1 | inactive | inactive | inactive
O=C(CN1CCOCC1)NCC[C@@H]1CC[C@@H](NS(=O)(=O)c2ccc(Cl)cc2)[C@@H](CO)O1 | inactive | inactive | inactive
C[C@@H]1CN([C@H](C)CO)C(=O)Cc2cc(NC(=O)Cc3ccccc3)ccc2O[C@H]1CN(C)S(=O)(=O)c1cccs1 | inactive | inactive | inactive
C[C@@H]1CN([C@H](C)CO)C(=O)c2cc(NC(=O)Cc3ccccc3)ccc2O[C@H]1CN(C)S(=O)(=O)c1cn(C)cn1 | inactive | inactive | inactive
CCN1C[C@H](C(=O)N2CCN(c3ncccc3C(N)=O)CC2)CC1=O | inactive | inactive | inactive
C[C@H]1CN([C@@H](C)CO)C(=O)c2cc(NC(=O)Nc3cccc4ccccc34)ccc2O[C@H]1CN(C)C(=O)Nc1ccc2c(c1)OCO2 | inactive | inactive | inactive
Cc1noc(C)c1S(=O)(=O)Nc1cccc2c1O[C@H](CN(C)C(=O)NC1CCCCC1)[C@H](C)CN([C@@H](C)CO)C2=O | inactive | inactive | inactive
C[C@@H]1CN([C@@H](C)CO)C(=O)c2cc(NS(=O)(=O)c3ccc(Cl)cc3)ccc2O[C@@H](C)CCCCO[C@@H]1CN(C)S(=O)(=O)c1ccc(Cl)cc1 | inactive | active | inactive
C[C@H]1CN([C@@H](C)CO)C(=O)c2cc(NC(=O)Cc3ccccc3)ccc2O[C@H]1CN(C)Cc1ccc(C(F)(F)F)cc1 | inactive | inactive | inactive
CC(C)NC(=O)Nc1ccc2c(c1)C(=O)N([C@H](C)CO)C[C@H](C)[C@@H](CN(C)C(=O)Nc1ccccc1)OCCCC[C@H](C)O2 | inactive | inactive | inactive
COc1ccc(NC(=O)N(C)C[C@H]2OCCCC[C@@H](C)Oc3ccc(NS(=O)(=O)c4ccc(OC)cc4)cc3C(=O)N([C@@H](C)CO)C[C@@H]2C)cc1 | inactive | inactive | inactive
C[C@@H]1CN([C@@H](C)CO)C(=O)Cc2cc(NC(=O)Nc3ccc(F)cc3)ccc2O[C@@H]1CN(C)C(=O)Nc1cccc2ccccc12 | inactive | inactive | inactive
C[C@@H]1CCCCO[C@H](CN(C)S(C)(=O)=O)[C@H](C)CN([C@@H](C)CO)C(=O)c2cc(NS(=O)(=O)c3ccc(F)cc3)ccc2O1 | inactive | inactive | inactive
C[C@H]1CN([C@@H](C)CO)C(=O)CCCn2cc(nn2)CO[C@H]1CN(C)S(=O)(=O)c1ccc2c(c1)OCCCO2 | inactive | inactive | inactive
C[C@@H]1CN([C@H](C)CO)C(=O)c2cc(NC(=O)C3CCCCC3)ccc2O[C@@H](C)CCCCO[C@H]1CN(C)Cc1ccccc1 | inactive | inactive | inactive
C[C@H]1C(=O)C(=O)[C@@H]2O[C@@H]2C1=O | inactive | inactive | inactive
Cc1noc(C)c1S(=O)(=O)N(C)C[C@@H]1Oc2ccc(NC(=O)NC(C)C)cc2CC(=O)N([C@H](C)CO)C[C@@H]1C | inactive | inactive | inactive
C[C@@H]1CN([C@@H](C)CO)S(=O)(=O)c2ccc(Br)cc2O[C@H]1CN(C)Cc1ccc(-c2ccccc2)cc1 | inactive | inactive | inactive

Structure (SMILES) | cytotoxicity call (HSkMC) | cytotoxicity call (HepG2) | growth inhibition call (S. aureus RN4220)
C[C@@H]1CN([C@@H](C)CO)C(=O)c2cc(NC(=O)NC3CCCCC3)ccc2O[C@@H](C)CCCCO[C@H]1CN(C)C(=O)Nc1ccc2c(c1)OCO2 | active | active | inactive
O=C(CCCCCNC(=O)OC[C@]12N=C3SCc4ccccc4CN3[C@H](c3ccccc3O1)[C@H]2COC(=O)c1ccccc1)NO | inactive | inactive | inactive
C[C@@H]1CN([C@@H](C)CO)C(=O)c2cc(NC(=O)CCC(F)(F)F)ccc2O[C@@H](C)CCCCO[C@H]1CN(C)C(=O)c1ccccc1 | inactive | inactive | inactive
C[C@@H]1CN([C@@H](C)CO)C(=O)Cc2cc(NC(=O)CCCCCC(=O)Nc3ccccc3N)ccc2O[C@H]1CN(C)S(=O)(=O)c1cn(C)cn1 | inactive | inactive | inactive
C[C@@H]1CN([C@H](C)CO)C(=O)c2cc(NC(=O)Cc3ccccc3)ccc2O[C@H]1CN(C)Cc1ccc(C(=O)Nc2ccccc2N)cc1 | inactive | inactive | inactive
COC[C@@H](C)Nc1ncnc2nc[nH]c12 | inactive | inactive | inactive
C[C@@H]1CN([C@@H](C)CO)C(=O)CCCn2cc(nn2)CO[C@H]1CN(C)C(=O)Nc1cccc(C(F)(F)F)c1 | inactive | inactive | inactive
C[C@H]1CCCCO[C@H](CN(C)Cc2ccncc2)[C@@H](C)CN([C@@H](C)CO)C(=O)c2cc(NS(=O)(=O)c3ccc(Cl)cc3)ccc2O1 | inactive | inactive | inactive
C[C@@H]1CCCCO[C@H](CN(C)C(=O)Nc2cccc3ccccc23)[C@H](C)CN([C@H](C)CO)C(=O)c2cc(NC(=O)Cc3ccccc3)ccc2O1 | inactive | active | inactive
C[C@@H]1CCCCO[C@H](CN(C)C(=O)c2ccncc2)[C@@H](C)CN([C@@H](C)CO)C(=O)c2cc(NS(C)(=O)=O)ccc2O1 | inactive | inactive | inactive
C[C@H](CO)N1C[C@H](C)[C@@H](CN(C)C(=O)c2cnccn2)Oc2ncc(C#Cc3ccccn3)cc2C1=O | inactive | inactive | inactive
CN1C(=O)c2cc(NS(=O)(=O)c3ccc(F)cc3)ccc2OC[C@H]2O[C@@H](CC(=O)NCC(F)(F)F)CC[C@@H]21 | inactive | inactive | inactive
C[C@H](CO)N1C[C@H](C)[C@H](CN(C)S(=O)(=O)c2ccc(F)cc2)Oc2ccc(NC(=O)Cc3ccccc3)cc2CC1=O | inactive | inactive | inactive
COc1ccnc(CS(=O)c2nc3cc(OC(F)F)ccc3[nH]2)c1OC (stereo unspecified) | inactive | inactive | inactive
Cc1noc(C)c1NC(=O)N(C)C[C@H]1Oc2ccc(NS(C)(=O)=O)cc2CC(=O)N([C@H](C)CO)C[C@@H]1C | inactive | inactive | inactive
C[C@@H]1CN([C@H](C)CO)C(=O)c2cc(NC(=O)c3ccccc3)ccc2O[C@@H](C)CCCCO[C@@H]1CN(C)C(=O)CCC(F)(F)F | inactive | inactive | inactive
C[C@@H]1CCCCO[C@@H](CN(C)S(=O)(=O)c2cn(C)cn2)[C@@H](C)CN([C@H](C)CO)C(=O)c2cc(NC(=O)Nc3cccc4ccccc34)ccc2O1 | inactive | inactive | inactive
COc1ccc(S(=O)(=O)Nc2ccc3c(c2)C(=O)N([C@H](C)CO)C[C@@H](C)[C@@H](CN(C)Cc2ccccc2)OCCCC[C@@H](C)O3)cc1 | inactive | inactive | inactive
C[C@H]1CN([C@@H](C)CO)C(=O)Cc2cc(NS(=O)(=O)c3ccc(F)cc3)ccc2O[C@H]1CN(C)CC1CC1 | inactive | inactive | inactive
Cc1noc(C)c1NC(=O)N(C)C[C@@H]1Oc2ccc(NS(=O)(=O)c3c(C)noc3C)cc2C(=O)N([C@@H](C)CO)C[C@@H]1C | inactive | inactive | inactive
CN1CCN(C(=O)C[C@H]2CC[C@H](NC(=O)c3ccc4c(c3)OCO4)[C@@H](CO)O2)CC1 | inactive | inactive | inactive
C[C@H](CO)N1C[C@H](C)[C@H](CN(C)S(=O)(=O)c2ccccc2)Oc2ncc(C#Cc3ccccc3F)cc2C1=O | inactive | inactive | inactive
CC(C)NC(=O)Nc1ccc2c(c1)CC(=O)N([C@H](C)CO)C[C@H](C)[C@H](CN(C)Cc1ccc(-c3ccccc3)cc1)O2 | inactive | inactive | inactive
O=C(O)[C@H]1/C(=C/CO)O[C@@H]2CC(=O)N21 | inactive | inactive | inactive
C[C@H]1CN([C@@H](C)CO)C(=O)Cc2cc(NC(=O)Nc3ccc(F)cc3)ccc2O[C@@H]1CN(C)S(C)(=O)=O | inactive | inactive | inactive
C=CCOC(=O)N(C)C[C@H]1OCCCC[C@H](C)Oc2ccc(NC(=O)Nc3ccccc3)cc2C(=O)N([C@@H](C)CO[Si](C)(C)C(C)(C)C)C[C@H]1C | inactive | active | inactive
